Data reported in PubChem BioAssay AID504832 (National Center for Advancing Translational Sciences (NCATS), 2011).
Hit rate of the full screen: of about 310,000 compounds, about 18,000 (5.8%) were called active. The inconclusive results got no clear call from the source; some entries with a clear call stand among them for comparison. Calls come from the whole dose curve; as a rule, active = well fitted inhibition curve with a large enough effect; inconclusive = small, poorly fitted or top-dose-only effect, or another doubt; inactive = no such curve, though single readings can be large or run the other way. Potencies of inconclusive entries are left out as doubtful fits.

Experiment: Primary qHTS for delayed death inhibitors of the malarial parasite plastid, 48 hour incubation
Settings: P. falciparum luciferase growth in erythrocytes; series mostly up to 28.7 µM
Summary of the method: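 First compound was added to culture medium, then infected red cells at 0.1% parasitemia and 2% hematocrit (final). After incubation at 37 C under 5% CO2, luciferase detection reagent was dispensed and light output recorded.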
Potency is the fitted concentration of half-maximal effect; tags give direction and shape of the fitted curve.

| Compound | Potency |
| --- | --- |
| CC(C)n1c(/C=C/[C@H](O)C[C@H](O)CC(=O)O)c(-c2ccc(F)cc2)c2ccccc21 | inconclusive [inhibitor, single point] |
| CCC(=O)N(C)CCc1cc2c(c(OC)c1/C=N/Nc1ccc(C(=O)O)cc1)OCO2 | inactive |
| C[C@@]12CCC=C[C@H]1[C@H](c1ccc(/C=C/c3ccccc3)cc1F)N(Cc1ccccc1)C2=O | active: 11.7 µM |
| CC(C)CC(NC(=O)CCC(=O)OCC(=O)[C@@]1(O)CCC2[C@@H]3CCC4=CC(=O)C=C[C@]4(C)C3[C@@H](O)C[C@@]21C)C(=O)O (some centres not stated) | inconclusive [inhibitor, single point] |
| Cc1ccnc(SCC(=O)N2CCc3ccccc32)n1 | inactive |
| O=C(Nc1ccncc1)c1cccc(S(=O)(=O)N2CCc3ccccc32)c1 | active: 10.4 µM |
| O=C(c1sc2ccccc2c1Cl)N1CCN(CCc2ccccn2)CC1 | inconclusive [inhibitor, single point] |
| Cn1c(=O)oc2cc(S(=O)(=O)N3CCC(C(=O)Nc4ccc(OC(F)(F)F)cc4)CC3)ccc21 | inconclusive [inhibitor, partial curve] |
| COCCN(C(=O)CCC(=O)Nc1nccs1)C(C(=O)NC(C)(C)C)c1ccc(Cl)cc1 (configuration not stated) | inconclusive [inhibitor, single point] |
| Clc1ccc(-n2cc(-c3ccc(Br)cc3)[n+]3c2CCCCC3)cc1 | inconclusive [inhibitor, partial curve] |
| O=C(Nc1ccc(N2CCN(Cc3ccccc3)CC2)cc1)c1ccco1 | inconclusive [inhibitor, full curve, poor fit] |
| Cc1c(C2(O)CCCCC2)[nH]c2cnccc12 | inconclusive [inhibitor, single point] |
| N/C(=N\OC(=O)CCCOc1ccccc1)c1ccccn1 | inactive |
| CCC(C)OC(=O)C1=C(C)OC23OC(N)=C(C#N)C12C(=O)c1ccccc13 (configuration not stated) | inconclusive [inhibitor, single point] |
| CCOc1cc2c(cc1OCC)-n1cccc1C(c1cccc(F)c1F)NC2 (configuration not stated) | inconclusive [inhibitor, single point] |
| COc1ccc(C)cc1S(=O)(=O)N(C)CC(=O)NCc1ccco1 | inactive |
| Cc1ccc(CN=C(Nc2ccccc2)NC2CCCCC2)cc1 | active: 10.4 µM |
| Cc1nn2c(-c3ccccn3)ccnc2c1Br | inconclusive [inhibitor, full curve, poor fit] |
| COc1ccccc1C(=O)NCCC(=O)Nc1cccc(S(=O)(=O)N2CCCC2)c1 | active: 3.29 µM |
| COc1cccc(NC(=O)CN(c2ccc(C)cc2)S(=O)(=O)c2c(C)nn(C)c2C)c1 | inconclusive [inhibitor, partial curve] |
| CCCCn1c(SCC(=O)Nc2cc(C(F)(F)F)ccc2Cl)nnc1C(CC)N(C)C (configuration not stated) | active: 8.28 µM |
| Cc1ccccc1C(=O)Nc1nnc(S(=O)(=O)N2CCCCCC2)s1 | inactive |
| O=C(CCSCCc1ccccn1)Nc1c(F)c(F)c(F)c(F)c1F | inactive |

| Compound | Potency |
| --- | --- |
| O=C(Nc1ccc(CN2CCOCC2)cc1)c1ccc(-c2ccc(Cl)cc2Cl)o1 | active: 2.08 µM |
| COC(=O)C1=C(c2ccc(OC(F)(F)F)cc2)C[C@@H]2CC[C@H]1N2C(=O)NCc1ccc(F)cc1 | inconclusive [inhibitor, partial curve, poor fit] |
| Cc1ccc(CN2CC(C(=O)N(C)CC(=O)Nc3cccc(F)c3)CC2=O)cc1 (configuration not stated) | inconclusive [inhibitor, single point] |
| Cc1ccc(C(=O)CC2(O)C(=O)N(CN3CCOCC3)c3ccccc32)cc1 (configuration not stated) | inconclusive [inhibitor, single point] |
| Clc1ccc(/C=N/Nc2ncnc3nc[nH]c23)cc1 | inconclusive [inhibitor, single point] |
| CN(C(=O)CCN1C(=O)/C(=C/c2ccccc2)SC1=S)C1CCS(=O)(=O)C1 (configuration not stated) | inconclusive [inhibitor, single point] |
| Cc1nn(C)cc1C(=O)NNC(=S)Nc1ccccc1 | inactive |
| O=C(CNCCc1ccc(Cl)cc1)Nc1ccc(C(=O)N2CCCCC2)cc1 | inconclusive [inhibitor, partial curve, poor fit] |
| CC(C)(C)c1ccc(C(=O)CCCN2CCC(OC(c3ccccc3)c3ccccc3)CC2)cc1 | active: 9.53 µM |
| O=[N+]([O-])c1ccc(/C=N/Nc2nc3ccccc3o2)cc1 | inactive |
| CCC(C)NC(=O)C1CCCN(S(=O)(=O)c2ccc3c(c2)CC(C)N3C(=O)C2CC2)C1 (configuration not stated) | inconclusive [inhibitor, full curve, poor fit] |
| CC(C)CNS(=O)(=O)c1ccc(CCC(=O)NCCC2=CCCCC2)cc1 | inconclusive [inhibitor, single point] |
| Cn1c(N2CCN(C(c3ccccc3)c3ccccc3)CC2)nc2ccccc21 | inconclusive [inhibitor, single point] |
| COc1cccc(NC(=S)N(CCc2c(C)[nH]c3ccc(C)cc23)Cc2cccs2)c1 | inconclusive [inhibitor, single point] |
| CCOc1ccc(NC(=O)C(C)Oc2ccc(C#N)cc2)cc1S(=O)(=O)N1CCCC1 (configuration not stated) | inconclusive [inhibitor, single point] |
| Cc1cc2ncn(/N=C/c3ccc([N+](=O)[O-])o3)c2cc1C | inconclusive [inhibitor, partial curve] |
| CCN(CC)c1ccc(C(=O)OCC(=O)Nc2cccc(S(=O)(=O)NC3=NCCCCC3)c2)cc1 | inconclusive [inhibitor, single point] |
| COc1cccc(NS(=O)(=O)c2ccc3c(c2)n(C)c(=O)c(=O)n3C)c1 | inconclusive [inhibitor, single point] |
| CCN(c1ccccc1C)S(=O)(=O)c1cc2c3c(c1)CCN3C(=O)CC2 | inconclusive [inhibitor, single point] |
| COc1ccc(-c2nc(NC(=O)c3ccc(OCC(=O)Nc4ccc(F)cc4)c(OC)c3)sc2C)cc1 | inconclusive [inhibitor, single point] |
| CSc1nnc(C(C)(C)C)c(=O)n1/N=C/c1ccc(Cl)cc1 | inconclusive [inhibitor, single point] |
| CCc1c(C)nc2cc(-c3ccc(OC)cc3)[nH]n2c1=O | inconclusive [inhibitor, single point] |
| CC(C)N1CCc2c(sc(NC(=O)CCc3ccccc3)c2C(N)=O)C1 | inconclusive [inhibitor, single point] |

| Compound | Potency |
| --- | --- |
| Cn1ccc2cc(-c3ccc4ncnc(NCc5cccnc5)c4c3)ccc21 | active: 1.85 µM |
| CCNC(=O)c1ccc(N(C)S(=O)(=O)c2cccs2)cc1 | inconclusive [inhibitor, single point] |
| O=C(CCN1C(=O)[C@@H]2Cc3ccccc3CN2C1=O)NCc1ccc(Cl)cc1 | inactive |
| CSc1cccc(NC(=O)c2ccc(NC3=NC4CS(=O)(=O)CC4S3)cc2)c1 (configuration not stated) | inactive |
| CN(C(=O)COC(=O)c1ccc(C(C)(C)C)cc1)C1CCS(=O)(=O)C1 (configuration not stated) | inconclusive [inhibitor, single point] |
| COc1ccc2c(C)c(C(=O)N3CC[C@@H](N4CCC(O)CC4)[C@H](O)C3)oc2c1 | inconclusive [inhibitor, partial curve, poor fit] |
| Cc1cc(O)c(C(C)C)cc1C1(c2cc(C(C)C)c(O)cc2C)OC(=O)c2ccccc21 | active: 2.08 µM |
| CCOc1ccc(C2c3[nH]c4ccccc4c3CCN2CCCn2cccn2)cc1 (configuration not stated) | inconclusive [inhibitor, partial curve] |
| O=C1C=C(Nc2ccccc2)C(=O)c2ccccc21 | inconclusive [inhibitor, full curve, poor fit] |
| CCCc1nc2ccc(NC(=O)c3cccs3)cc2c(=O)n1Cc1ccc(Cl)cc1 | active: 0.465 µM |
| Cc1c(O)cc2c(c1O)C(=O)CC(c1ccccc1)O2 (configuration not stated) | inactive |
| COc1ccc(CN2C(=O)Cc3c2nc(N)c2c(N)nc(N4CCCCC4)c(C#N)c32)cc1 | inconclusive [inhibitor, partial curve, poor fit] |
| CCN(CC)S(=O)(=O)c1ccc(C(=O)NCCc2cc3c(OC)ccc(OC)c3[nH]c2=O)cc1 | inconclusive [inhibitor, partial curve, poor fit] |
| CSCCC(NC(=O)c1ccccc1)C(=O)N1CCCCCCC1 (configuration not stated) | inactive |
| Cc1cccc(C)c1NC(=O)CN(C)CC(=O)N(C)CC(=O)Nc1ccccc1Br | inactive |
| C=CC[N+]1(CC#CCOC(c2ccccc2)c2ccccc2)CCOCC1 | inconclusive [inhibitor, partial curve] |
| CCOc1ccc(Nc2cc3n(c(=O)n2)CCc2cc(OC)c(OC)cc2-3)cc1 | inconclusive [inhibitor, partial curve] |
| COc1ccc(CN(CCC(c2ccccc2)C2CCOC(C)(C)C2)C(C)=O)cc1 (configuration not stated) | active: 13.1 µM |
| O=C(CSc1ccc2nnc(-c3ccccn3)n2n1)Nc1ccc(F)cc1 | inactive |
| C/C(=N\NC(=O)c1cccc([N+](=O)[O-])c1)c1cccc(NC(=O)C2CC2)c1 | inactive |
| CCOC(=O)c1cnc2ccccc2c1Nc1ccc(C(=O)O)cc1 | inconclusive [inhibitor, single point] |
